# From the RNAGym collection of RNA variant scans (doi:10.1073/pnas.2313332121)
# Variants at the background level are over-represented here.
# B1: TPR 5TU (parent)
# chain: GGAUCUUCUCGAUCUAACAAAAAAGACAAAUCUGCCACAAAGCUUGAGAGCAUCUUCGGAUGCAGAGGCGGCAGCCUUCGGUGGCGCGAUAGCGCCAACGUUCUCAACUAUGACACGCAAAACGCGUGCUCCGUUGAAUGGAGUUUAUCAUG
# Variants of: B1
# Test: polymerase ribozyme fitness, log enrichment relative to wild type (log ratio); higher = more active; in vitro selection for triplet polymerase activity
# In short: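 Each subunit of a heterodimeric triplet polymerase ribozyme was mutagenized into a library by PCR, transcribed, and subjected to one round of in vitro selection, run in triplicate. Libraries were annealed with a biotinylated primer, the partner subunit and triplets, incubated frozen at −7 °C, and extended constructs were gel-excised, captured on streptavidin beads and recovered by RT-PCR. Input and output libraries were sequenced on Illumina, keeping genotypes with ≥10 input reads and ≥1 read per output. Fitness is log base 2 of genotype enrichment divided by wild-type enrichment, from inverse-variance-weighted replicate averages.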
row,Variant,polymerase ribozyme fitness (log ratio)
1,C14A C35U G58A G86A C96U,-3.96
2,C14A C36U A41G U53A C87A G126A,≤ -4.2
3,C14A C38A G42C U56G G67C G84A C108U U127C,≤ -4.2
4,C14A C38U C63U A98U C108G U109G A110C C118G G141A,≤ -4.2
5,C14A C38U G50A G58U G70C C105G,≤ -4.2
6,C14A C43A A52G U82A C85G C114U C123A G141A A142U,≤ -4.2
7,C14A C54U,-2.07
8,C14A C54U G83U C95U U111G U134G,≤ -4.2
9,C14A C95U,-1.38
10,C14A C99G,-1.66
11,C14A G42A U56A C79G C99G C118U G143C,≤ -4.2
12,C14A G42C C95U C105U,≤ -4.2
13,C14A G42U A47U A91G C96U C118U,≤ -4.2
14,C14A G59A G84A A106G C125G U148C C149U,≤ -4.2
15,C14A G62U,-1.57
16,C14A U15C A19C A20C U45C G86U,-4.11
17,C14A U45A G92U U104G A107C,≤ -4.2
18,C14A U55G A73G C75G C85G C114A,≤ -4.2
19,C14A U135A A142C,-3.9
20,C14G A16C G70A C108A A113U A120U G143A,≤ -4.2
21,C14G A16G A22C A60U C87U C93U A121C,≤ -4.2
22,C14G A16G A49U C87A A115C,≤ -4.2
23,C14G A16G C18A G25U U33G G42C C54U C85G A91U A107G,≤ -4.2
24,C14G A16U C18A C54G G88A A91U C99G A121U U139C,≤ -4.2

row,Variant,polymerase ribozyme fitness (log ratio)
1,C14G A17G C32U G81A G83C,≤ -4.2
2,C14G A17U A37U A52G C57U A91U U127A U134A A150U,≤ -4.2
3,C14G A17U C18U C105A A110G U135A U148G,≤ -4.2
4,C14G A19C C75U U82C C93U A97U C105G,≤ -4.2
5,C14G A19G C93A C95G A107G C123G G143C A150G,≤ -4.2
6,C14G A19U C87G U145A,≤ -4.2
7,C14G A19U U61A A97G G133U G141A,≤ -4.2
8,C14G A20C G94A A110U C114U,≤ -4.2
9,C14G A20U C76A,-3.92
10,C14G A20U G50A U56A G65U C93A C131A,≤ -4.2
11,C14G A22C A49G G58A A60C G83U G126U,≤ -4.2
12,C14G A22G C43U C96U U109C C114A,≤ -4.2
13,C14G A23C A26C G71A,≤ -4.2
14,C14G A23C A52C U53A C54A U55G A106C U139A,≤ -4.2
15,C14G A23G C76G U82A G83C G133A,≤ -4.2
16,C14G A23G G88A,≤ -4.2
17,C14G A24C,-3.63
18,C14G A24G C27G U53A C57G C95A C96A A119U,≤ -4.2
19,C14G A24U C75U U78A C87G,≤ -4.2
20,C14G A24U U61G G80C G94A,≤ -4.2
21,C14G A26C G70C G94C G133A U144A,≤ -4.2
22,C14G A26G G58U C72U A122G,≤ -4.2
23,C14G A26U A64U C79A G92U C93U,≤ -4.2
24,C14G A26U C27G C35A A52C A91G A107G G126U U130A,≤ -4.2

row,Variant,polymerase ribozyme fitness (log ratio)
1,C14G A28G C51U A52U G88A U109G,≤ -4.2
2,C14G A28U G50U G83A,≤ -4.2
3,C14G A29G U77G A91C C95G U102G C116U A119G G141C,≤ -4.2
4,C14G A30U A41C C43U G50C U55G C75G C118U A119C,≤ -4.2
5,C14G A30U U61A G92A C99A A115G,≤ -4.2
6,C14G A39C G68U,≤ -4.2
7,C14G A39U A120G,≤ -4.2
8,C14G A39U G58A U61G C85U C95U A107C G141C U146C,≤ -4.2
9,C14G A40C C51G G65A C85A U139G,≤ -4.2
10,C14G A40C G50A G71C A97G A106G A138U,≤ -4.2
11,C14G A40G,≤ -4.2
12,C14G A41C C57G A60G C76G U101C,≤ -4.2
13,C14G A41C C93U C116G C149G,≤ -4.2
14,C14G A41C G88U A107C,≤ -4.2
15,C14G A41G C54G C57U G92A U148A,≤ -4.2
16,C14G A41U C63G U102C,≤ -4.2
17,C14G A41U G62C C95U C96A G112U A142U U146A A150G,≤ -4.2
18,C14G A47G U61G G88A C93U C95A A110C U134G,≤ -4.2
19,C14G A49C A52C U53A C63U A64U A66G C69A C85U U111G A115U A147U C149G,≤ -4.2
20,C14G A49G,-2.92
21,C14G A49G A52C C69G G94U A110G A147C,≤ -4.2
22,C14G A49G C57G C108U U109C C132U G133U,≤ -4.2
23,C14G A52G C87G,≤ -4.2
24,C14G A52G U55A G59C U102A A110G U134A,≤ -4.2

row,Variant,polymerase ribozyme fitness (log ratio)
1,C14G A66C,≤ -4.2
2,C14G A66U A91C U109C C116A,≤ -4.2
3,C14G A91U A97G,-3.96
4,C14G C18U A52G G81U G92A C131G,≤ -4.2
5,C14G C18U C57U G65A G83A A106C G117U,≤ -4.2
6,C14G C27G A41C U55A G94C C95G A107G,≤ -4.2
7,C14G C27G G42A G84A C85G G128U C131G,≤ -4.2
8,C14G C27G G94A,≤ -4.2
9,C14G C27U C57U U102G A120U C149U,≤ -4.2
10,C14G C27U G48A C57A A60U G88C A106U,≤ -4.2
11,C14G C32G,-4.17
12,C14G C35U U56G G83A A98U A106U,≤ -4.2
13,C14G C36A A41U C87U,≤ -4.2
14,C14G C36G C87U A113C U148C,≤ -4.2
15,C14G C36U G42A C63A G86U A119C A142U,≤ -4.2
16,C14G C38A A39C U127C A142C A150C,≤ -4.2
17,C14G C38G C96A G112U G117C,≤ -4.2
18,C14G C38U C51A C57U G112U U144G,≤ -4.2
19,C14G C38U C95U C103A U148C,≤ -4.2
20,C14G C38U G68U G80U A91G C103A U139C,≤ -4.2
21,C14G C51A U56A C75G G136U,≤ -4.2
22,C14G C54U C76G U82C G86A A107C,≤ -4.2
23,C14G C54U G59C C63U A110U G143C,≤ -4.2
24,C14G C57A G92A C96U A107C G124U,≤ -4.2

row,Variant,polymerase ribozyme fitness (log ratio)
1,C14G C57U A91C C108U A120C U145C,≤ -4.2
2,C14G C69A C76A C87U A89U C108U,≤ -4.2
3,C14G C85A C95G C103U U146A,≤ -4.2
4,C14G C85A U104G A113C A120U,≤ -4.2
5,C14G C87G A107G,≤ -4.2
6,C14G C96U,-2.21
7,C14G C99G,-3.32
8,C14G G25C A47U G50A C93A U102A G124C,≤ -4.2
9,C14G G25U A113G C114G U146A,≤ -4.2
10,C14G G25U U55A C93A,≤ -4.2
11,C14G G34A U44C C63A,≤ -4.2
12,C14G G42A U45G A49C C54G A138U U139A,≤ -4.2
13,C14G G46A G58C C93U G143U A147C,≤ -4.2
14,C14G G46U A52C C96U U104G U109G G112U U135G U144A,≤ -4.2
15,C14G G50A G58C U82C G141C,-4.17
16,C14G G50C A66G C85G A106G,≤ -4.2
17,C14G G50C A91U A98U G124A,≤ -4.2
18,C14G G50U A73U G86A U144C,≤ -4.2
19,C14G G50U C95U C96U A115G,-4.1
20,C14G G59A C87G A89U C118U C149G,≤ -4.2
21,C14G G62A G81A A91U,≤ -4.2
22,C14G G62C G70C A91U,≤ -4.2
23,C14G G68U C87U,≤ -4.2
24,C14G G71C C96G A119U G143A,≤ -4.2

row,Variant,polymerase ribozyme fitness (log ratio)
1,C14G G86U G141A,≤ -4.2
2,C14G G88C C125G,-4.08
3,C14G G92U,-2.61
4,C14G G94A A97C G140A,≤ -4.2
5,C14G U31G,-2.12
6,C14G U44G A73G G88C A91C U102G U127C G133U,≤ -4.2
7,C14G U44G G46A A52U C87A C99G U151G,≤ -4.2
8,C14G U53A C54A U61G G62U U146C,≤ -4.2
9,C14G U55A C57U G86U C103A,≤ -4.2
10,C14G U55A G71A A73G G94C A110C C114G G133A,≤ -4.2
11,C14G U55A U56C A91U,≤ -4.2
12,C14G U55A U77C G80C C85U A107C C108U G140A,≤ -4.2
13,C14G U56A A60U G88U C93G,≤ -4.2
14,C14G U56A C85U G140A,≤ -4.2
15,C14G U56G C57U C63U C72U U151G,≤ -4.2
16,C14G U56G C75U C99G U139C,≤ -4.2
17,C14G U77G A97U U111C,-4.01
18,C14G U78A G86A,≤ -4.2
19,C14G U148A,-4.14
20,C14U A17C C18G A20G G59U C85U A91U C118U G140A,≤ -4.2
21,C14U A17U A19C U44A G68A A73G G86U C96U C149G,≤ -4.2
22,C14U A17U A24G A41C C51U U56A C93A A115C,≤ -4.2
23,C14U A17U A24U C76A C85U,-3.79
24,C14U A17U A28C G83A A107G G133U,≤ -4.2

row,Variant,polymerase ribozyme fitness (log ratio)
1,C14U A17U C95U C108G,≤ -4.2
2,C14U A19C A26C C76G U90C C95A A122U,≤ -4.2
3,C14U A19U A26U U61G C93U U134A U139A,≤ -4.2
4,C14U A20C G46C U53A U102C A106G G140U C149G,≤ -4.2
5,C14U A20C G48U C87G A91U C105G,≤ -4.2
6,C14U A20C U33A C76G G92C G141A,≤ -4.2
7,C14U A20G A21G A41C G80C C95U G117A G133C,≤ -4.2
8,C14U A20U A24U G42A A49C C57A A60C U104G C114A A115C,≤ -4.2
9,C14U A21G A29G C85U C116A,-4.2
10,C14U A22C A29G A40G C57A U77G C85G A121U C131U,≤ -4.2
11,C14U A22C A30U C54U C57U A137C G141A U146G,≤ -4.2
12,C14U A22C G50U C57A C76G C99U U102C C131U U148G,≤ -4.2
13,C14U A22G A47C C51U G86C,≤ -4.2
14,C14U A22G G88A A107G U144G,≤ -4.2
15,C14U A22U U31G G62U C72U A91U C118A,≤ -4.2
16,C14U A23G A24C G70A C85G A89U,≤ -4.2
17,C14U A23G A47U G50C C93U U144A,≤ -4.2
18,C14U A23U G34U C79A G94U U127A,≤ -4.2
19,C14U A23U G46A C85U G88A,≤ -4.2
20,C14U A24C U53A G67U C108U A150G,≤ -4.2
21,C14U A24U C35U U61C G83C C123G,≤ -4.2
22,C14U A24U C38U C57U U61A C79G U82A,≤ -4.2
23,C14U A26C G48C U53G C54A C93A U145A U148C,≤ -4.2
